From US20260008853A1 (BEONE MEDICINES I, published 2026) come the findings set out here.

Sequences of proteins named here, by UniProt entry; tags and fusion partners are left off. A change or cut given only in a name is not applied to a line headed by its entry.
UniProt O75015: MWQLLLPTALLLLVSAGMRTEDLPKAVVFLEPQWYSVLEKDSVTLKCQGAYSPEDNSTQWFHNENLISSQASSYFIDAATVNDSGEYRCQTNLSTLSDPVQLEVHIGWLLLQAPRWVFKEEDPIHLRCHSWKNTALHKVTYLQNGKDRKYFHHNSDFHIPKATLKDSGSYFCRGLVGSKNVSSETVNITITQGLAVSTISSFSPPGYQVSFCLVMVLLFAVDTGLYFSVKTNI
UniProt Q8SPW2: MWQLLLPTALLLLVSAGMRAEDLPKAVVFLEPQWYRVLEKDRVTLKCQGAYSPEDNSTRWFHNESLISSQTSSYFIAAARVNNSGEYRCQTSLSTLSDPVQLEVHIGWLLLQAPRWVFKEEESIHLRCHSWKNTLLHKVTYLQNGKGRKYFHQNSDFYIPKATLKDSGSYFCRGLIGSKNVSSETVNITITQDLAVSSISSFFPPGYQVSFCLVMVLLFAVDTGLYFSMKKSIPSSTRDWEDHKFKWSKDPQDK
UniProt P08637: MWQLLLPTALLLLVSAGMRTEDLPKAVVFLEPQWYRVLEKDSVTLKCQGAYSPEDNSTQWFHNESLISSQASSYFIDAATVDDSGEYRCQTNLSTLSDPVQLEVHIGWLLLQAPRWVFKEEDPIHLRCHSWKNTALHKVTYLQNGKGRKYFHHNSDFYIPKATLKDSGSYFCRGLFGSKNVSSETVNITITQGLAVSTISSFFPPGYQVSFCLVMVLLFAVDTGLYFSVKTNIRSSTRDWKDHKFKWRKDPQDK

Results are given in words; binding and its absence hold for the method and conditions named. Some binding calls cover weakened binding; strength is not graded here.

Test [1] concerns the target human CD16B-His6 (NA1) (human) (UniProt O75015). As to the kind of experiment: antigen ELISA, coated human CD16B-His6 (NA1), HRP anti-human IgG. On the technique in general: ELISA stands for enzyme-linked immunosorbent assay.
Test [2] concerns the target human CD16B-His6 (NA2) (human) (UniProt O75015). Kind of test: antigen ELISA, coated human CD16B-His6 (NA2), HRP anti-human IgG.
For a further test, the target named is cyno CD16-His6 (cyno) (UniProt Q8SPW2). Kind of test: antigen ELISA, coated cyno CD16-His6, 1 ug/ml, HRP anti-human IgG.
Test [3] has as its target human CD16A-His6 (F158) (human) (UniProt P08637). Kind of test: antigen ELISA, coated human CD16A-His6 (F158), 1 ug/ml, HRP anti-human IgG.
For test [4], the target named is human CD16A-His6 (V158) (human) (UniProt P08637). As to the kind of experiment: antigen ELISA, coated human CD16A-His6 (V158), 1 ug/ml, HRP anti-human IgG.
For test [5], the target named is Human CD16B (NA1) on NK92mi/CD16B (NA1) cells (human) (UniProt O75015). Kind of test: flow cytometry on NK92mi/CD16B (NA1) cells, Alexa Fluor 647 anti-human IgG Fc. On the technique in general: Flow cytometry measures light scatter and fluorescence of single cells or particles in a stream.
Test [6] has as its target Human CD16B (NA2) on NK92mi/CD16B (NA2) cells (human) (UniProt O75015). Kind of test: flow cytometry on NK92mi/CD16B (NA2) cells, Alexa Fluor 647 anti-human IgG Fc.
Test [7] deals with Human CD16A (V158) on NK92mi/CD16A V158 cells (human) (UniProt P08637). As to the kind of experiment: flow cytometry on NK92mi/CD16A (V158) cells, Alexa Fluor 647 anti-human IgG Fc.

B1: LS21 (scFv)
scFv: EVQLVQSGAEVKKPGESLKVSCKASGYTFTSYYMHWVRQAPGQGLEWMGIINPSGGSTSYAQKFQGRVTMTRDTSTSTVYMELSSLRSEDTAVYYCARGSAYYYDFADYWGQGTLVTVSSGGGGSGGGGSGGGGSQPVLTQPSSVSVAPGQTATISCGGHNIGSKNVHWYQQRPGQSPVLVIYQDNKRPSGIPERFSGSNSGNTATLTISGTQAMDEADYYCQVWDNYSVLFGGGTKLTVL
notes: also called positive control
For B1, the binding entry in test [1] is on record as “no binding (tested: 1 ug/ml)”; in test [2] it was “no binding (tested: 1 ug/ml)”; with cyno CD16-His6 (cyno), “binds”; in test [3] it was “binds”; in test [4], “binds”; in test [5], “no binding (tested: 50 ug/ml)”. Moreover, the figures for the binding result in test [6] and in test [7] were “no binding (tested: 50 ug/ml)” and “binds”, respectively.
